# From the supplement of paper PMC10037445
# The full ranking holds about 2,900 compounds; the median of “IRF Lucia reporter activity, fold change vs agonist alone” is about 0.9, and the highest 2% start at about 2.8. Some of the results follow.
# Assays:
# [1] = tested on: RAW-Dual; test: IRF Lucia reporter activity, fold change vs agonist alone; cytotoxicity flag (confluency mask): cytotoxic (confluency <70% of control); higher = enhanced IRF activity
# Method in brief: (§1)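 Cytotoxic wells were those whose IncuCyte confluency was below 70% of agonist controls in both mask sets. The cells were RAW-Dual macrophages at 50,000 cells/well in DMEM on 384-well plates, dosed with 50 nL of library stock by pin tool, stimulated with a PRR agonist 1 h later, and kept at 37 °C, 5% CO2 for 20 hours. IRF and NF-κB reporter activity, as fold change over agonist-alone wells, came from supernatant read by QuantiLuc luminescence and QuantiBlue absorbance, respectively.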
# [2] = tested on: RAW-Dual; test: IRF Lucia reporter activity, fold change vs agonist alone; higher = enhanced IRF activity; conditions: cytotoxicity flag (confluency mask): not cytotoxic, agonist: MPLA (TLR4) […]
# Method in brief: as §1
# [3] = tested on: RAW-Dual; test: IRF Lucia reporter activity, fold change vs agonist alone; cytotoxicity flag (confluency mask): not cytotoxic; higher = enhanced IRF activity
# Method in brief: as §1
# [4] = agonist: 3'3'-cGAMP (STING) 10 ug/mL
# [5] = library stock concentration (final ~1000-fold dilution): 10 mM
smiles,measurement,setting,value
NS(=O)(=O)OC[C@H]1C[C@@H](Nc2ccnc3cc(-c4cccc(SC(F)(F)F)c4)nn23)[C@H](O)[C@@H]1O (library stock concentration (final ~1000-fold dilution): 10 mM),IRF Lucia reporter activity,[1]; [4],0.036
same,IRF Lucia reporter activity,[1]; agonist: LPS (TLR4) 0.1 ug/mL,0.0261
NCC(O)(c1ccc(Cl)cc1)c1ccc(-c2cn[nH]c2)cc1 (stereo unspecified),IRF Lucia reporter activity,[2]; [5],0.269
NCC(O)(c1ccc(Cl)cc1)c1ccc(-c2cn[nH]c2)cc1 (stereo unspecified) (library stock concentration (final ~1000-fold dilution): 10 mM),IRF Lucia reporter activity,[3]; [4],0.154
same,IRF Lucia reporter activity,[3]; agonist: LPS (TLR4) 0.1 ug/mL,0.324
COC1CCC(N2C(=O)CNc3ncc(-c4ccc(C(C)(C)O)nc4)nc32)CC1 (stereo unspecified) (library stock concentration (final ~1000-fold dilution): 10 mM),IRF Lucia reporter activity,[3]; [4],0.15
same,IRF Lucia reporter activity,[3]; agonist: LPS (TLR4) 0.1 ug/mL,0.145
CN1C(=O)C(NC(=O)c2n[nH]c(Cc3ccccc3)n2)COc2ccccc21 (stereo unspecified) (library stock concentration (final ~1000-fold dilution): 10 mM),IRF Lucia reporter activity,[3]; [4],0.866
same,IRF Lucia reporter activity,[3]; agonist: LPS (TLR4) 0.1 ug/mL,0.968
CCCc1nn(C)c2c(=O)[nH]c(-c3cc(S(=O)(=O)N4CCN(C)CC4)ccc3OCC)nc12.CS(=O)(=O)O (library stock concentration (final ~1000-fold dilution): 10 mM),IRF Lucia reporter activity,[3]; [4],1.08
same,IRF Lucia reporter activity,[3]; agonist: LPS (TLR4) 0.1 ug/mL,0.86
CCCc1nn(C)c2c(=O)[nH]c(-c3cc(S(=O)(=O)N4CCN(C)CC4)ccc3OCC)nc12.CS(=O)(=O)O,IRF Lucia reporter activity,[2]; [5],0.997
CCC1OC(=O)C(C)(F)C(=O)C(C)C(OC2OC(C)CC(N(C)C)C2O)C(C)(OC)CC(C)C(=O)C(C)C2N(CCCCn3cc(-c4cccc(N)c4)nn3)C(=O)OC12C (stereo unspecified) (library stock concentration (final ~1000-fold dilution): 10 mM),IRF Lucia reporter activity,[3]; [4],1.18
same,IRF Lucia reporter activity,[3]; agonist: LPS (TLR4) 0.1 ug/mL,2.35
CCC1OC(=O)C(C)(F)C(=O)C(C)C(OC2OC(C)CC(N(C)C)C2O)C(C)(OC)CC(C)C(=O)C(C)C2N(CCCCn3cc(-c4cccc(N)c4)nn3)C(=O)OC12C (stereo unspecified),IRF Lucia reporter activity,[2]; [5],1.72
O=C1c2ccccc2C(=O)C1c1ccc(Cl)cc1 (library stock concentration (final ~1000-fold dilution): 10 mM),IRF Lucia reporter activity,[3]; [4],1.02
same,IRF Lucia reporter activity,[3]; agonist: LPS (TLR4) 0.1 ug/mL,0.944
O=C1c2ccccc2C(=O)C1c1ccc(Cl)cc1,IRF Lucia reporter activity,[2]; [5],0.984
Cc1cc(C)c(-c2csc(NC(=O)c3ccccc3)n2)c(C)c1 (library stock concentration (final ~1000-fold dilution): 10 mM),IRF Lucia reporter activity,[3]; [4],1.75
same,IRF Lucia reporter activity,[3]; agonist: LPS (TLR4) 0.1 ug/mL,0.664
Cc1cc(C)c(-c2csc(NC(=O)c3ccccc3)n2)c(C)c1,IRF Lucia reporter activity,[2]; [5],1.23
O=C(O)COCCN1CCN(C(c2ccccc2)c2ccc(Cl)cc2)CC1 (stereo unspecified),IRF Lucia reporter activity,[2]; [5],1.02
O=C(O)COCCN1CCN(C(c2ccccc2)c2ccc(Cl)cc2)CC1 (stereo unspecified) (library stock concentration (final ~1000-fold dilution): 10 mM),IRF Lucia reporter activity,[3]; [4],0.975
same,IRF Lucia reporter activity,[3]; agonist: LPS (TLR4) 0.1 ug/mL,1.19
CC(C)NCC(C(=O)N1CCN(c2ncnc3c2C(C)CC3O)CC1)c1ccc(Cl)cc1 (stereo unspecified) (library stock concentration (final ~1000-fold dilution): 10 mM),IRF Lucia reporter activity,[3]; [4],0.847
same,IRF Lucia reporter activity,[3]; agonist: LPS (TLR4) 0.1 ug/mL,1.02
CC(C)NCC(C(=O)N1CCN(c2ncnc3c2C(C)CC3O)CC1)c1ccc(Cl)cc1 (stereo unspecified),IRF Lucia reporter activity,[2]; [5],1.07
Cc1nnsc1C(=O)Nc1ccc(-n2nc(C(F)(F)F)cc2C(F)(F)F)cc1 (library stock concentration (final ~1000-fold dilution): 10 mM),IRF Lucia reporter activity,[1]; [4],0.929
same,IRF Lucia reporter activity,[1]; agonist: LPS (TLR4) 0.1 ug/mL,1
C=CC(=O)Nc1cccc(Nc2nc(Nc3ccc(Oc4ccnc(C(=O)NC)c4)cc3)ncc2F)c1,IRF Lucia reporter activity,[2]; [5],0.0755
C=CC(=O)Nc1cccc(Nc2nc(Nc3ccc(Oc4ccnc(C(=O)NC)c4)cc3)ncc2F)c1 (library stock concentration (final ~1000-fold dilution): 10 mM),IRF Lucia reporter activity,[3]; [4],0.017
same,IRF Lucia reporter activity,[3]; agonist: LPS (TLR4) 0.1 ug/mL,0.137
CCCOC(=O)c1cc(O)c(O)c(O)c1 (library stock concentration (final ~1000-fold dilution): 10 mM),IRF Lucia reporter activity,[3]; [4],0.151
same,IRF Lucia reporter activity,[3]; agonist: LPS (TLR4) 0.1 ug/mL,0.574
CCCOC(=O)c1cc(O)c(O)c(O)c1,IRF Lucia reporter activity,[2]; [5],0.817
CN1CCN(C2=Nc3ccccc3Oc3ccc(Cl)cc32)CC1.O=C(O)CCC(=O)O (library stock concentration (final ~1000-fold dilution): 10 mM),IRF Lucia reporter activity,[3]; [4],1.11
same,IRF Lucia reporter activity,[3]; agonist: LPS (TLR4) 0.1 ug/mL,1.72
CN1CCN(C2=Nc3ccccc3Oc3ccc(Cl)cc32)CC1.O=C(O)CCC(=O)O,IRF Lucia reporter activity,[2]; [5],1.26
CC(C)c1c(-c2ccccc2)[nH]c2c(C#N)cnn2c1=O.Cl (library stock concentration (final ~1000-fold dilution): 10 mM),IRF Lucia reporter activity,[3]; [4],1.02
same,IRF Lucia reporter activity,[3]; agonist: LPS (TLR4) 0.1 ug/mL,1.04
O=C1NC(=O)/C(=C\c2ccc(-c3ccc(F)cc3)o2)S1,IRF Lucia reporter activity,[2]; [5],0.949
O=C1NC(=O)/C(=C\c2ccc(-c3ccc(F)cc3)o2)S1 (library stock concentration (final ~1000-fold dilution): 10 mM),IRF Lucia reporter activity,[3]; [4],0.904
same,IRF Lucia reporter activity,[3]; agonist: LPS (TLR4) 0.1 ug/mL,1.09
CCN(CC)CC(O)CNc1ccc(NCC2CO2)c2c1C(=O)c1ccccc1C2=O (stereo unspecified) (library stock concentration (final ~1000-fold dilution): 10 mM),IRF Lucia reporter activity,[1]; [4],0.0163
same,IRF Lucia reporter activity,[1]; agonist: LPS (TLR4) 0.1 ug/mL,0.0453
Cl.O=c1[nH]ccc2c(S(=O)(=O)N3CCCNCC3)cccc12 (library stock concentration (final ~1000-fold dilution): 10 mM),IRF Lucia reporter activity,[3]; [4],1.12
same,IRF Lucia reporter activity,[3]; agonist: LPS (TLR4) 0.1 ug/mL,1.16
C=CC(=O)Nc1cc(Nc2nccc(-c3c[nH]c4ccccc34)n2)c(OC)cc1N(C)CCN(C)C (library stock concentration (final ~1000-fold dilution): 10 mM),IRF Lucia reporter activity,[3]; [4],1.06
same,IRF Lucia reporter activity,[3]; agonist: LPS (TLR4) 0.1 ug/mL,0.526
C=CC(=O)Nc1cc(Nc2nccc(-c3c[nH]c4ccccc34)n2)c(OC)cc1N(C)CCN(C)C,IRF Lucia reporter activity,[2]; [5],1.11
O=[N+]([O-])c1cncn1CCN1CCOCC1 (library stock concentration (final ~1000-fold dilution): 10 mM),IRF Lucia reporter activity,[3]; [4],1.06
same,IRF Lucia reporter activity,[3]; agonist: LPS (TLR4) 0.1 ug/mL,0.881
O=[N+]([O-])c1cncn1CCN1CCOCC1,IRF Lucia reporter activity,[2]; [5],1.09
Br.Br.Br.Br.Br.Br.c1ccc(CNCc2ccc(CN3CCCNCCNCCCNCC3)cc2)nc1 (library stock concentration (final ~1000-fold dilution): 10 mM water),IRF Lucia reporter activity,[3]; [4],1.07
same,IRF Lucia reporter activity,[3]; agonist: LPS (TLR4) 0.1 ug/mL,0.886
Br.Br.Br.Br.Br.Br.c1ccc(CNCc2ccc(CN3CCCNCCNCCCNCC3)cc2)nc1,IRF Lucia reporter activity,[2]; library stock concentration (final ~1000-fold dilution): 10 mM water,1.35
